Results as given in paper PMC4242493.
This is one part of the list. The list includes weakly bound sequences.

These sequences were tested against MaxL homodimer (UniProt P61244) (assay: universal protein-binding microarray (PBM)). Conditions: PBS-based mixture, 10 nM His-tagged protein dimer, 2% milk, 200 ng/uL BSA, 50 ng/uL salmon testes DNA, 0.02% TX-100; detection with Alexa 488 anti-His …; high values mean tight binding; most listed sequences are background and not binding sites; double strand, one strand shown.
Sequence of UniProt P61244 (P61244 whole entry): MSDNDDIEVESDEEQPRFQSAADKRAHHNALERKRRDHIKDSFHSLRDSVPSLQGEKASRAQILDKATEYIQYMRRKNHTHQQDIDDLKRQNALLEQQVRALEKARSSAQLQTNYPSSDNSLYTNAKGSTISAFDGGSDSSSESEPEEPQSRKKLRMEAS
With AAGTCCTC the binding signal (normalized occupancy) was 0.07.
For AAAGGGTA, the binding signal (normalized occupancy) was 0.0823.
Sequence CCGAGCCG has a binding signal (normalized occupancy) of 0.0668.
In the case of AGTGACGA, the binding signal (normalized occupancy) is reported as 0.0757.
GGTTCGTA gave a binding signal (normalized occupancy) of 0.0711.
For ATATTTCC, the binding signal (normalized occupancy) was 0.0852.
GACGTCCC showed a binding signal (normalized occupancy) of 0.0673.
Work on ATCTCCAA yielded a binding signal (normalized occupancy) of 0.0742.
CGGAGGAG gave a binding signal (normalized occupancy) of 0.0725.
GTAAGGTA gave a binding signal (normalized occupancy) of 0.0763.
ACGTGCCG was tested, and the binding signal (normalized occupancy) was 0.0929.
For GTCCTCAC, the binding signal (normalized occupancy) was 0.0765.
With AACAGGTA the binding signal (normalized occupancy) was 0.079.
In the case of GATGGTGC, the binding signal (normalized occupancy) is reported as 0.0806.
AAAAAAGT showed a binding signal (normalized occupancy) of 0.0748.
CTATCAGC showed a binding signal (normalized occupancy) of 0.0763.
In the case of GGAGTTGA, the binding signal (normalized occupancy) is reported as 0.0728.
Work on AGTGGAAT yielded a binding signal (normalized occupancy) of 0.0749.
Work on GCAGAAGA yielded a binding signal (normalized occupancy) of 0.0723.
Sequence GCCACCTA has a binding signal (normalized occupancy) of 0.0707.
Sequence CGATTAGA has a binding signal (normalized occupancy) of 0.0757.
For AGGACTCG, the binding signal (normalized occupancy) was 0.0681.
Sequence AAGTGTCT has a binding signal (normalized occupancy) of 0.073.
In the case of CGCGAGCC, the binding signal (normalized occupancy) is reported as 0.0667.
Sequence TCAGACGA has a binding signal (normalized occupancy) of 0.0739.
Work on AGAAACGA yielded a binding signal (normalized occupancy) of 0.0802.
ACGTCCTC was tested, and the binding signal (normalized occupancy) was 0.0742.
AGTACATC showed a binding signal (normalized occupancy) of 0.0798.
GCACTCAC showed a binding signal (normalized occupancy) of 0.0818.
With ATAGGCCA the binding signal (normalized occupancy) was 0.0738.
For CCACATAG, the binding signal (normalized occupancy) was 0.0803.
Sequence GCTGCCTA has a binding signal (normalized occupancy) of 0.072.
For GCCGCGCA, the binding signal (normalized occupancy) was 0.0695.
For CATTTCAC, the binding signal (normalized occupancy) was 0.0771.
In the case of ATCAATGA, the binding signal (normalized occupancy) is reported as 0.0835.
ACTTAGTA showed a binding signal (normalized occupancy) of 0.0721.
With ATCCAACC the binding signal (normalized occupancy) was 0.0754.
CGAGTCTA was tested, and the binding signal (normalized occupancy) was 0.0708.
GACTAAGC was tested, and the binding signal (normalized occupancy) was 0.066.
AGTGATCC showed a binding signal (normalized occupancy) of 0.0717.
CGATTGCA was tested, and the binding signal (normalized occupancy) was 0.0745.
CCAACCAC showed a binding signal (normalized occupancy) of 0.0828.
CCACTGTA was tested, and the binding signal (normalized occupancy) was 0.0744.
CATATGAC showed a binding signal (normalized occupancy) of 0.0954.
Work on ACCCCATG yielded a binding signal (normalized occupancy) of 0.102.
Sequence ATAGCGTA has a binding signal (normalized occupancy) of 0.0819.
Sequence GACCCAGC has a binding signal (normalized occupancy) of 0.0741.
GCGCTTGA was tested, and the binding signal (normalized occupancy) was 0.0669.
With GCGGCCTA the binding signal (normalized occupancy) was 0.0689.
ACTACACT showed a binding signal (normalized occupancy) of 0.0745.
For CAACCCTA, the binding signal (normalized occupancy) was 0.0742.
Sequence GGGAAAAC has a binding signal (normalized occupancy) of 0.073.
Work on CCCGGACC yielded a binding signal (normalized occupancy) of 0.0766.
With GGGACCGA the binding signal (normalized occupancy) was 0.067.
In the case of AATTTGGG, the binding signal (normalized occupancy) is reported as 0.0765.
GCCGGCAC gave a binding signal (normalized occupancy) of 0.0688.
In the case of ACTCGGCA, the binding signal (normalized occupancy) is reported as 0.0722.
CCACACCG was tested, and the binding signal (normalized occupancy) was 0.0853.
In the case of AGACTCCT, the binding signal (normalized occupancy) is reported as 0.072.
Sequence AATTCATG has a binding signal (normalized occupancy) of 0.0813.
CGGCTCTA showed a binding signal (normalized occupancy) of 0.0718.
ACTGACAT showed a binding signal (normalized occupancy) of 0.0822.
Sequence CAGTGTGC has a binding signal (normalized occupancy) of 0.0797.
Work on AATCGCTA yielded a binding signal (normalized occupancy) of 0.074.
AAAATGTA was tested, and the binding signal (normalized occupancy) was 0.0835.
Sequence ACGAATCG has a binding signal (normalized occupancy) of 0.0746.
In the case of AGGGATAA, the binding signal (normalized occupancy) is reported as 0.0801.
AAGCTTGT gave a binding signal (normalized occupancy) of 0.0717.
In the case of CTCTTCAA, the binding signal (normalized occupancy) is reported as 0.0719.
CATGCTAA was tested, and the binding signal (normalized occupancy) was 0.091.
For ACACAAAC, the binding signal (normalized occupancy) was 0.0831.
In the case of GTTACAGA, the binding signal (normalized occupancy) is reported as 0.0818.
For AACATCGA, the binding signal (normalized occupancy) was 0.0754.
With AAGTCTCC the binding signal (normalized occupancy) was 0.0764.
ATATTAAT gave a binding signal (normalized occupancy) of 0.0838.
GAAGCATC showed a binding signal (normalized occupancy) of 0.076.
Work on TGATCCAA yielded a binding signal (normalized occupancy) of 0.0774.
For CACAAGAC, the binding signal (normalized occupancy) was 0.0757.
Work on CGTACGAA yielded a binding signal (normalized occupancy) of 0.0668.
ATATGAAT showed a binding signal (normalized occupancy) of 0.088.
TACAACTA showed a binding signal (normalized occupancy) of 0.0731.
Sequence AAGGTTTG has a binding signal (normalized occupancy) of 0.072.
Work on CATTCAAA yielded a binding signal (normalized occupancy) of 0.077.
ACGTGTTA showed a binding signal (normalized occupancy) of 0.109.
For GAAGGGGA, the binding signal (normalized occupancy) was 0.0751.
For CCCGGGTA, the binding signal (normalized occupancy) was 0.0702.
ACTTTAAT showed a binding signal (normalized occupancy) of 0.0771.
CCGAAGGA showed a binding signal (normalized occupancy) of 0.0653.
With CTCACAGC the binding signal (normalized occupancy) was 0.0698.
CAAGGAGC showed a binding signal (normalized occupancy) of 0.0737.
With TAGTATGA the binding signal (normalized occupancy) was 0.0809.
GATCTTCA showed a binding signal (normalized occupancy) of 0.0714.
Sequence CTCCGGAA has a binding signal (normalized occupancy) of 0.0683.
CTGCAGGC was tested, and the binding signal (normalized occupancy) was 0.0687.
Work on TGACTCCA yielded a binding signal (normalized occupancy) of 0.0765.
AATGCGCC gave a binding signal (normalized occupancy) of 0.0731.
With GCGGACTA the binding signal (normalized occupancy) was 0.0716.
CACAGCTC was tested, and the binding signal (normalized occupancy) was 0.0732.
Sequence CGATACCG has a binding signal (normalized occupancy) of 0.0694.
GGTAAGGA gave a binding signal (normalized occupancy) of 0.0701.
Work on AGCTGATA yielded a binding signal (normalized occupancy) of 0.0762.
Sequence CGACATGA has a binding signal (normalized occupancy) of 0.0858.
TAAGCTGA showed a binding signal (normalized occupancy) of 0.0738.
Sequence AAGTGGAA has a binding signal (normalized occupancy) of 0.072.
Work on ACCAGCTG yielded a binding signal (normalized occupancy) of 0.0697.
In the case of ATGATCGG, the binding signal (normalized occupancy) is reported as 0.0783.
GGTATCTA was tested, and the binding signal (normalized occupancy) was 0.0852.
For GAGGAAGA, the binding signal (normalized occupancy) was 0.075.
In the case of CAGTCCAA, the binding signal (normalized occupancy) is reported as 0.0738.
For ATCCACGC, the binding signal (normalized occupancy) was 0.109.
With GGCGCCGA the binding signal (normalized occupancy) was 0.07.
CACAGAAC gave a binding signal (normalized occupancy) of 0.0725.
CCTATAAC was tested, and the binding signal (normalized occupancy) was 0.0887.
GCGCACAC showed a binding signal (normalized occupancy) of 0.0833.
Work on ATAGCAAT yielded a binding signal (normalized occupancy) of 0.0791.
Sequence AGACGTCG has a binding signal (normalized occupancy) of 0.0745.
In the case of AATAGGGA, the binding signal (normalized occupancy) is reported as 0.0739.
Sequence ATATCCTA has a binding signal (normalized occupancy) of 0.0806.
Work on AGCTCAGG yielded a binding signal (normalized occupancy) of 0.0712.
For GTTATCGA, the binding signal (normalized occupancy) was 0.074.
Work on AGATAGAC yielded a binding signal (normalized occupancy) of 0.0744.
Sequence CATTATGG has a binding signal (normalized occupancy) of 0.0813.
For ACGCGCGC, the binding signal (normalized occupancy) was 0.0821.
Sequence ACCCATGA has a binding signal (normalized occupancy) of 0.0882.
With CTCCTCCA the binding signal (normalized occupancy) was 0.0779.
Sequence GGTGAGAA has a binding signal (normalized occupancy) of 0.071.
In the case of ACCCTAAA, the binding signal (normalized occupancy) is reported as 0.0716.
ATAATTTG gave a binding signal (normalized occupancy) of 0.0804.
For CTCTGGGC, the binding signal (normalized occupancy) was 0.0676.
With CACCCTGA the binding signal (normalized occupancy) was 0.0786.
ACTGTGTC showed a binding signal (normalized occupancy) of 0.0697.
TACTAATA was tested, and the binding signal (normalized occupancy) was 0.0814.
AAGCGGAA was tested, and the binding signal (normalized occupancy) was 0.0749.
With CCCGTAAG the binding signal (normalized occupancy) was 0.0811.
Work on CTAGGTGA yielded a binding signal (normalized occupancy) of 0.0754.
AATGGACG showed a binding signal (normalized occupancy) of 0.0788.
With GGATCGCC the binding signal (normalized occupancy) was 0.0778.
For CCCAACTA, the binding signal (normalized occupancy) was 0.0744.
AGAGAGTG gave a binding signal (normalized occupancy) of 0.0746.
With CACAGGGG the binding signal (normalized occupancy) was 0.083.
ATTGACGC showed a binding signal (normalized occupancy) of 0.0771.
Work on AGGTGACT yielded a binding signal (normalized occupancy) of 0.0768.
For GCCGTTCC, the binding signal (normalized occupancy) was 0.0719.
Sequence ATTGCCCC has a binding signal (normalized occupancy) of 0.0797.
In the case of CAGTTGTC, the binding signal (normalized occupancy) is reported as 0.074.
ATGCAGGG showed a binding signal (normalized occupancy) of 0.0792.
ACCTTTCA was tested, and the binding signal (normalized occupancy) was 0.0774.
For CTCTACAA, the binding signal (normalized occupancy) was 0.0776.
With AATCATCT the binding signal (normalized occupancy) was 0.0788.
With CTGTTGAA the binding signal (normalized occupancy) was 0.0758.
ACGAGACC gave a binding signal (normalized occupancy) of 0.0848.
Work on ACATACTC yielded a binding signal (normalized occupancy) of 0.073.
AGGCCGTC was tested, and the binding signal (normalized occupancy) was 0.0709.
AGGACACA gave a binding signal (normalized occupancy) of 0.0745.
Work on AGCCAGAT yielded a binding signal (normalized occupancy) of 0.0712.
GCTTACCA gave a binding signal (normalized occupancy) of 0.0723.
AGAGCAAC was tested, and the binding signal (normalized occupancy) was 0.066.
For GTGAACGA, the binding signal (normalized occupancy) was 0.0773.
In the case of CGTTTGTA, the binding signal (normalized occupancy) is reported as 0.0749.
Sequence TGGGTAAA has a binding signal (normalized occupancy) of 0.0757.
Work on AAGTGCTA yielded a binding signal (normalized occupancy) of 0.0755.
With CAAGAAAG the binding signal (normalized occupancy) was 0.0721.
With CCTAGGGA the binding signal (normalized occupancy) was 0.0699.
Work on AGAGCAAG yielded a binding signal (normalized occupancy) of 0.072.
Sequence CACTGGCG has a binding signal (normalized occupancy) of 0.0717.
Sequence CCCCTGAC has a binding signal (normalized occupancy) of 0.078.
With GAGAGTCC the binding signal (normalized occupancy) was 0.0698.
Work on CCGCTCGA yielded a binding signal (normalized occupancy) of 0.0694.
ATTCGGCC gave a binding signal (normalized occupancy) of 0.0712.
Work on ACCATGGG yielded a binding signal (normalized occupancy) of 0.0927.
With GACACAGA the binding signal (normalized occupancy) was 0.0724.
For TGTGGCAA, the binding signal (normalized occupancy) was 0.0751.
